Results reported in PubChem BioAssay AID757 (NMMLSC, 2007).
In all, about 190,000 compounds went through this assay and about 520 (0.27%) were called active. The inconclusive results got no clear call from the source; some entries with a clear call stand among them for comparison.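 The calls were made as follows: active = GTP binding activity at least 20 points away from the 100% control level, either lower or higher; inconclusive = compound flagged as likely green fluorescent, judged across all proteins; inactive = the rest.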

molecular target: Ras-related C3 botulinum toxin substrate 1 (Homo sapiens) (UniProt P63000); test: wildtype Rac1 GTP binding modulators, primary screen, biochemical, GST-Rac1 beads, flow cytometry, multiplex (AID 757); settings: fluorescent GTP binding, at 10 µM, actives lie on both sides, 0 = cold GTP competed, 100 = untreated

Compound	GTP binding activity (% of control)
CC(C)NS(=O)(=O)c1ccc(OCC(=O)N2CCCC2)c(Cl)c1	inconclusive: 103%
COc1cc(C(=O)Nc2nnc(CC(C)C)s2)c([N+](=O)[O-])cc1OC	inconclusive: 97%
CCOC(=O)c1c(NC(=O)N/N=C/c2ccccc2OCC)sc(C(C)=O)c1C	inconclusive: 126%
O=C1CSc2ccc(C(=O)NCCC3=CCCCC3)cc2N1	inconclusive: 96%
O=c1c2ccccc2nc2c3ccccc3c(NCCO)nn12	active: 63%
COc1cc(/C=N/NC(=O)CN(Cc2ccco2)S(=O)(=O)c2ccccc2)ccc1O	active: 77%
CN(C)Cc1c(O)ccc2[nH]cnc12	inconclusive: 105%
CCCC1CC(C)(C(=O)CSc2n[nH]c(-c3ccccc3)n2)OC1=O (centres undefined)	inactive: 109%
C=CCn1c(SCc2ccc(C(=O)Nc3ccccc3)cc2)nnc1-c1ccccc1	inconclusive: 107%
COc1ccc(CCNC(=O)c2c(O)c3c([nH]c2=O)CCCC3)cc1	inconclusive: 93%
CC1CCCCN1C(=O)CSc1nc(N)cc(=O)[nH]1 (centres undefined)	inconclusive: 105%
O=C(CCS(=O)(=O)c1ccccc1)Nc1ccccc1-c1nc2ccccc2s1	inactive: 103%
c1ccc2sc(NC3=NCN(CC4CCCO4)CN3)nc2c1 (centres undefined)	inactive: 95%
CC(C)OC(=O)CSc1nnc(-c2cnccn2)n1Cc1ccco1	inconclusive: 91%
Cc1ccc(-c2csc(NC(=O)c3cccc(S(=O)(=O)N4CCN(C)CC4)c3)n2)cc1	inconclusive: 89%
Cc1cc(C)c2oc(C(=O)Nc3ccc(S(=O)(=O)N4CCCC(C)C4)cc3)cc(=O)c2c1 (centres undefined)	inactive: 102%
Cc1cc(Cl)cc(Cl)c1OCC(=O)NCc1ccco1	inconclusive: 96%
COc1ccc(C2=NCCn3cccc32)c(OC)c1	inconclusive: 108%
CC(=O)c1c(C)nc(-c2ccc(Cl)cc2Cl)n1O	inconclusive: 99%
CCN=C1S/C(=C\c2ccc(OC)c(OCC)c2)C(=O)N1CC	inconclusive: 188%

Compound	GTP binding activity (% of control)
Cc1ccc(S(=O)(=O)N(CC(O)CN2CCOCC2)c2cc(Cl)ccc2Cl)cc1 (centres undefined)	inconclusive: 110%
CC(=O)c1cccc(NC(=O)N2CCCC2C(=O)NCCC(C)C)c1 (centres undefined)	inconclusive: 107%
COCCn1cnc2c1c(=O)n(CC(=O)OCC#N)c(=O)n2Cc1ccccc1	inactive: 95%
CCCC(=O)Oc1ccc(N(C(=O)CCC)S(=O)(=O)c2cccs2)cc1	inconclusive: 93%
C[C@H](NC(=O)OC(C)(C)C)C(=O)NCC1CCC(C(=O)O)CC1 (some centres undefined)	inconclusive: 104%
COc1ccc(CCCc2nnc(SCC(=O)N/N=C\c3ccc(O)c(OC)c3)o2)cc1C	inconclusive: 89%
COc1cc(/C=N/NC(=O)[C@H](Cc2c[nH]c3ccccc23)NC(=O)OCC(C)C)cc([N+](=O)[O-])c1O	inconclusive: 87%
c1ccc2c(-c3cn4ccccc4n3)c[nH]c2c1	inactive: 104%
Cc1cc(C)c(/C([O-])=C(/C(=S)Nc2ccc(SC(F)F)cc2)[n+]2ccccc2)cc1C	inconclusive: 91%
COc1ccccc1NC(=O)C(=O)N(c1cccnc1)C(C(=O)NC(C)(C)C)c1ccccc1F (centres undefined)	inconclusive: 100%
Cc1cc(C)nc(N2CCCC(C(=O)NC(C)C)C2)n1 (centres undefined)	inactive: 98%
CSc1ccccc1NC(=O)CN1CC(C)OC(C)C1 (centres undefined)	inactive: 98%
COc1ccc(-c2nn3c(-c4ccccn4)nnc3s2)cc1OC	active: 74%
O=C(/C=C/c1ccc(F)cc1)NC(Cc1c[nH]c2ccccc12)C(=O)O (centres undefined)	inconclusive: 87%
Cc1ccc(NC(=S)N(CCN2CCCCC2)Cc2ccco2)cc1Cl	inactive: 99%
CCOC(=O)C1=C(N)Oc2cc(O)ccc2C1c1ccc([N+](=O)[O-])cc1 (centres undefined)	inconclusive: 93%
CC(C)Cc1nnc(NC(=O)CSc2nc(O)c(Cc3ccccc3)c(=O)[nH]2)s1	inconclusive: 93%
Cc1ccc(N=Nc2c(N)[nH]n3c(=O)c4c(nc23)CCCC4)cc1	active: 75%
NS(=O)(=O)c1ccc(CNC(=O)c2csc3c2CCCC3)cc1	inactive: 105%
Cc1nn(-c2ccccc2)c2sc(C(=O)O)cc12	inconclusive: 81%

Compound	GTP binding activity (% of control)
CC(=O)NCCn1c(SCC(=O)NCCc2ccc(S(N)(=O)=O)cc2)nc2ccccc2c1=O	inconclusive: 92%
COc1cc2[nH]c(=S)nc(NCCCOC(C)C)c2cc1OC	inconclusive: 75%
NC1=NC(=O)/C(=C\c2ccsc2)S1	inactive: 101%
CCOc1cc(/C=N/NC(=O)CSc2cccc3cccnc23)ccc1O	inconclusive: 74%
CNC(=O)c1cn(-c2ccccc2)c(=O)c2ccccc12	inconclusive: 103%
CN=CC1=C(O)C(C(=O)OC)C(C)(C)CC1=O (centres undefined)	inactive: 91%
COc1ccc(C2=NN(C(=O)c3cccs3)C(c3ccccc3OC)C2)cc1OC (centres undefined)	inconclusive: 86%
CN(c1ccccc1)S(=O)(=O)c1cccc(C(=O)Nc2nccs2)c1	inconclusive: 93%
Cn1c(CNc2nc(-c3ccccc3)cs2)nnc1SCC(=O)c1ccccc1	inconclusive: 97%
COc1ccccc1-n1ccnc1SCC(=O)NCc1ccco1	inactive: 100%
Cn1c(=O)n(Cc2ccccc2)c(=O)c2c1nc1n2CCN1Cc1ccco1	inconclusive: 80%
CSc1cccc(NC(=O)CSc2ccccc2)c1	inconclusive: 90%
O=C(NC1=NCCS1)c1cc(-c2cccnc2)nc2ccccc12	inconclusive: 99%
CCN(c1ccccc1)S(=O)(=O)c1cc(C(=O)OC(C)C(=O)Nc2ccc3c(c2)OCCO3)ccc1C (centres undefined)	inconclusive: 91%
N#Cc1c(N)nc2c(c1-c1ccccc1)CCC2	inactive: 96%
Cc1cc(C)nc(SCc2nnc(SCC(=O)Nc3cc(C(F)(F)F)ccc3Cl)o2)n1	inactive: 98%
O=C(c1cc2cc([N+](=O)[O-])ccc2oc1=O)N1CCOCC1	inconclusive: 104%
Cn1ncc(N=Cc2ccc([N+](=O)[O-])cc2)c1C(=O)Nc1ccccc1	inactive: 99%
CCCC(=O)Nc1sc2c(c1C(=O)Nc1ccccn1)CCCC2	inactive: 100%
